± gives the standard deviation of the averaged measurements. Some of the results follow.

For the test, the system named is PfAP2-I AP2 domain 3 (GST-tagged). Nature of the test: gcPBM binding intensity (ln(normalized median fluorescence intensity)); higher = stronger DNA binding. In short, it runs like this:
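Alexa488 anti-GST antibody, scanned at 488 nm, detected GST-tagged P. falciparum DNA-binding domains that had been expressed in E. coli and incubated for 1 h on an Agilent 4 × 180k array. The array carried primer-extended double-stranded 36-bp intergenic genomic probes and negative controls. Binding intensity is the highest Masliner-normalised natural-log median intensity across replicate spots of either orientation of each probe.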
Regarding “CGGCACGTGATATATACACACATATAGATATATACA [CACACA_site6408]”, the “gcPBM binding intensity (ln)” value is 7.79 ± 0.65.
To “TGGATAATGAATGATGCACACTAAAAATATTCTACA [CACACA_site5912]” belongs 8.65 ± 0.2.
Consider “TATTTGTAAATCGATACACACATATATCTTAATATA [CACACA_site4273]”, for which the “gcPBM binding intensity (ln)” value stood at 7.43 ± 0.41.
For the sequence “CTCAATATTATTACTACACACAAATTAATATTTTCC [CACACA_site55]”, the “gcPBM binding intensity (ln)” value was determined as 7.92 ± 0.36.
The result for “ATATATACTATATTTTAACACACAAAAAAAAAAAAT [CACACA_site8277]” reads 7.96 ± 0.38; that for “TGTTAATTGAATGCAATCTGAATTTTTTTACATAAT [CACACA_negctrl_site1002]”, 7.4 ± 0.57; that for “CACCCACCCAGACACACACACACAAAAAAAAAAAGA [CACACA_site499]”, 8.12 ± 0.27.
Turning to “CTTTTTTCAAGACACACACACAAGAAAATATAAATA [CACACA_site7455]”, the “gcPBM binding intensity (ln)” value stood at 7.97 ± 0.4.
Consider “GAAAATCAGTTAAACACACACATAAAAAAAAAAAAA [CACACA_site2875]”, for which the “gcPBM binding intensity (ln)” value was determined as 7.96 ± 0.4.
Take “ATCATATGTATGCATACACACAAAAAGTTATTTATA [CACACA_site6325]”: the “gcPBM binding intensity (ln)” value was 7.9 ± 0.41.
The result for “TCAAGTATTAAAATGGGTACATAAATATGTGTATAT [XGTACX_site5884]” reads 7.87 ± 0.53; that for “CATATAAAAAAATAGACACACATTTTATATAATACG [CACACA_site1896]”, 7.67 ± 0.62; that for “TATTTTTCTTTTTTTTTTTTTTTTATATTATACGTG [XGTACX_negctrl_site363]”, 7.46 ± 0.41.
Regarding “CTTTTTAAATTAAAATGTACAGAAAAATATTATTAT [XGTACX_site8760]”, the “gcPBM binding intensity (ln)” value came to 7.72 ± 0.69.
The result for AAATTATGCATCGAGGTGCGTCTTAAAATATAGTGG reads 9.27 ± 0.38; that for “ATATAAATTCAAATTACACACATTTATTTTTTTTAC [CACACA_site53]”, 7.7 ± 0.71; that for “ACTAATAATTTGTCGGTGCATAAAATTATTTTTATT [GTGCAC_site9840]”, 10.8 ± 0.43.
In the case of “CTACATAATAAAAAAAGTACATTCTAATAAATTGAC [XGTACX_site4504]”, the “gcPBM binding intensity (ln)” value stood at 7.79 ± 0.3.
Regarding “TATATGCCTATAAGAAGTACTGTGTAATGTAATATA [XGTACX_site8089]”, the “gcPBM binding intensity (ln)” value was determined as 7.89 ± 0.45.
Consider “TAAACATAAATATGCACACATATACATATATTCATA [CACACA_site2667]”, for which the “gcPBM binding intensity (ln)” value came to 8.69 ± 0.099.
As for “AAGAAAAATATATTTATATATATATATATTAAATAT [TGCATGCA_negctrl_site500]”, the “gcPBM binding intensity (ln)” value is 7.53 ± 0.38.
The result for “AATTTTATACGATAAACATGCAAATAAATAAATAAA [TGCATGCA_site227]” reads 8.06 ± 0.9; that for “TATAATAATATTTATTGTACAATTAGTTTAATTCAT [XGTACX_site272]”, 7.77 ± 0.31.
To “TTTATTATATAAACATGTACACAATTTGGTATATTC [XGTACX_site3112]” belongs 8.02 ± 0.37.
Consider “ACAGCCAATACGGAAACACACAAGTTATTTTATCAT [CACACA_site5507]”, for which the “gcPBM binding intensity (ln)” value came to 7.71 ± 0.57.
With “AAAGAAAAAAAAAACACACACACACCCATTCAATAT [CACACA_site38]”, the “gcPBM binding intensity (ln)” value is 8 ± 0.54.
Turning to “AATATCTGTATATCCACACACATATATATATATATA [CACACA_site4987]”, the “gcPBM binding intensity (ln)” value came out at 9.34 ± 0.45.
The result for “TAATCGGTAATATTAACACACACATTTATATATATT [CACACA_site8274]” reads 7.96 ± 0.26; that for “TAATTTCTTATGTAGTGTACAAATAATATATGATAT [XGTACX_site597]”, 8.01 ± 0.35.
For the sequence “AATATCACCACATTGTTACTATAATATATAAAAAAG [XGTACX_negctrl_site384]”, the “gcPBM binding intensity (ln)” value was 7.87 ± 0.43.
For the sequence “AAAAGGAGAAATATTGCACACGTGCAAAATGGTATG [CACACA_site4300]”, the “gcPBM binding intensity (ln)” value is 11.3 ± 0.085.
For the sequence “GTATTAATAAAAATACGTACTTATTATTTATAATAA [XGTACX_site7672]”, the “gcPBM binding intensity (ln)” value stood at 7.665 ± 0.035.
The result for “ATTATTCATATAACACGTACAAAACGAAAAACAAAT [XGTACX_site3873]” reads 8.41 ± 0.58.
Regarding “ATTCATAAAAGTTGTACATGCAATTTTTTTTTTTTT [TGCATGCA_site270]”, the “gcPBM binding intensity (ln)” value stood at 7.79 ± 0.53.
For “ATTTTGTTATGAAACACACACATATATATATATATA [CACACA_site3650]”, the “gcPBM binding intensity (ln)” value amounted to 9.6 ± 0.54.
The result for “ATATATGTAACATATTGTACATATATGTATGTATGT [XGTACX_site3281]” reads 8.49 ± 0.42; that for “ATGATAAAATTATGTAGTACATATTTGAATGTAAAT [XGTACX_site688]”, 7.78 ± 0.58.
In the case of “AATATAAGTAGTACAGTGCATATAATAATTAGAAGA [GTGCAC_site9485]”, the “gcPBM binding intensity (ln)” value turned out to be 10.1 ± 0.13.
In the case of “TTGATTTATATTTAATGTACATTTTTACAGAAAATT [XGTACX_site2747]”, the “gcPBM binding intensity (ln)” value is 7.68 ± 0.42.
To “CCATAAAAAGGATACACACACACACGCACATATATA [CACACA_site6550]” belongs 8.1 ± 0.37; to “GATTAAACACAAAGAAGTACGGACATAAAAAAAAAA [XGTACX_site3686]”, 8.16 ± 0.69; to TCGTGGTTTTAATAAGTGCGCAATTTAAATATTTTT, 9.31 ± 0.18.
“TATTATTATTATTACACACACAATTATATTTACCCC [CACACA_site503]”: the “gcPBM binding intensity (ln)” value was found to be 8.33 ± 0.58.
As to “GTATATATATATATATATATATATTTTTATTTATTT [CACACA_negctrl_site589]”, the “gcPBM binding intensity (ln)” value is 8.18 ± 0.35.

Source of the values: the supplement of paper PMC11417369.
